Results on five compounds are retold here after PubChem BioAssay (NCI).

Each structure is given as a SMILES string.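 Exposure lasted 48 hours, with cells grown in 96-well plates and compounds tested at five concentrations. GI50 marks 50% less growth. The concentration for full growth arrest is given as TGI.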

The subject of this test is NCI-H322M lung. Nature of the test: NCI anticancer screen, dose series, 48 h.

For `Oc1ccc(CSc2nnc(-c3ccc(Oc4ccccc4)cc3)o2)c2cccnc12`, the GI50 is 0.903 µM and the TGI is > 100 µM.

Regarding `CCN1CCN(c2ccc(NC(=O)Nc3ccc4c(ccn4-c4ccnc(C(=O)NC)c4)c3)cc2C(F)(F)F)CC1`, the GI50 is 2.28 µM and the TGI came to 4.43 µM.

On to `Oc1ccc(CSc2nnc(-c3ccccc3)n2-c2ccccc2)c2cccnc12`, for which the GI50 is 0.555 µM and the TGI is > 100 µM.

Turning to `CN1CCN(c2ccc(NC(=O)Nc3ccc4c(ccn4-c4cccc(C(N)=O)n4)c3)cc2C(F)(F)F)CC1`, the GI50 is 7.82 µM and the TGI worked out at 15.9 µM.

As to `CCN(CC)CCn1c2ccc(O)cc2c2sc3cc(OC)ccc3c(=O)c21`, the GI50 was 6.89 µM and the TGI is 24.7 µM.
